# Results published in publication PMC4336329 (PLoS ONE, 2015).
# Hit rate of the full screen: of about 310,000 compounds, about 2,200 (0.71%) showed an effect of 50% or more. The effect is printed as a negative number. The list shows a part of the results.
# Molecular target: human ether-à-go-go-related gene (hERG) potassium channel (human, UniProt Q12809)
# Assay: primary screen, population patch clamp on CHO cells stably expressing hERG
# Sequence of human ether-à-go-go-related gene (hERG) potassium channel (Q12809 whole entry, looked up): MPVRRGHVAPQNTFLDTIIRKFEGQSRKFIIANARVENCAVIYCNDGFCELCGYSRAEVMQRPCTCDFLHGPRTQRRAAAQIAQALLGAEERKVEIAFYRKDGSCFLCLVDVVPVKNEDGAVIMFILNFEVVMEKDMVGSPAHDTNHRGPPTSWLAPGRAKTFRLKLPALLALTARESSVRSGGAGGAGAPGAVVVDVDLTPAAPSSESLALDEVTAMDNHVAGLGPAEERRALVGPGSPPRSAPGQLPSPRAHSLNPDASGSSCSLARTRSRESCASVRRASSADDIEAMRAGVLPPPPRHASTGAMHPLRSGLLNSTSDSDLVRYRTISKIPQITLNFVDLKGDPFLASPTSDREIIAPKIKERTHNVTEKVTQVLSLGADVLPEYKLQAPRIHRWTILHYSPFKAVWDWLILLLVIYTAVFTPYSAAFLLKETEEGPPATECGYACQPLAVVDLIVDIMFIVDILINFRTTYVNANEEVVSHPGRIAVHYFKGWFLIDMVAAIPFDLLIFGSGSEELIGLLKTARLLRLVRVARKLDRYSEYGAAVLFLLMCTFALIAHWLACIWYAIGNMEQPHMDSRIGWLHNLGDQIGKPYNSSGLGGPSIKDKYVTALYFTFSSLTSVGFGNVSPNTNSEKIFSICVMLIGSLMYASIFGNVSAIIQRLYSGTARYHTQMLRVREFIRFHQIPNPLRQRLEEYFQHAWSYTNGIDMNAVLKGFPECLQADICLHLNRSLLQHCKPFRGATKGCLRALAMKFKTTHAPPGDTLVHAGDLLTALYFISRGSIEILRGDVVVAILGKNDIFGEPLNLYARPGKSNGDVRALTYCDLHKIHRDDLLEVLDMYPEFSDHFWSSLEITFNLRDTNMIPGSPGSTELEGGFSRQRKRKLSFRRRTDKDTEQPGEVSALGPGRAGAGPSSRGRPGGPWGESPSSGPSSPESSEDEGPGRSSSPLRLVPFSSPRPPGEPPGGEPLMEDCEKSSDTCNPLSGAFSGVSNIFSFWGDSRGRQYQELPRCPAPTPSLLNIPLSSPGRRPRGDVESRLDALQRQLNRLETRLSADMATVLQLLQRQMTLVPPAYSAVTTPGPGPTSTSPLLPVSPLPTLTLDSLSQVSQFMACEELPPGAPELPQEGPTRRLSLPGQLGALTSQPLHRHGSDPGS
row,SMILES,"hERG current change (%, negative = inhibition) at 1uM [%]"
1,CCCCn1c(N)c(N(CCOC)C(=O)c2sc3ccccc3c2Cl)c(=O)[nH]c1=O,-4.2
2,CSC1=N/C(=C\c2ccc(Br)o2)C(=O)S1,-4.11
3,Cc1nc2scc(-c3ccc(Cl)cc3)c2c(=O)o1,9.48
4,Cc1ccc(S(=O)(=O)N2CCn3cccc3C2C)cc1 (stereo not shown),-2.04
5,O=C(Nc1ccc(NC(=O)c2cccs2)cc1)c1ccc2ccccc2c1,21.8
6,CCOC(=O)C1=C(N)N2C(=O)C(C)SC2=C(C(=O)OCC)C1c1ccc(O)cc1 (stereo not shown),3.63
7,Cc1ccc(-c2nc(-c3cccnc3)sc2CC(=O)Nc2ccc(C)c(Cl)c2)cc1,13.9
8,Cc1cc(=O)oc2cc(OCC(=O)NCc3ccccn3)ccc12,6.83
9,Cc1cc(C)cc(NC(=O)c2ccc(S(=O)(=O)C(F)F)cc2)c1,5.72
10,CC(OC(=O)c1ccccc1)C(=O)NCCC1=CCCCC1 (stereo not shown),10.4
11,COc1ccc(C)c2sc(=NC(=O)c3cccc(N4C(=O)CCC4=O)c3)n(C)c12,10.2
12,Nc1cccnc1Oc1ccc(F)cc1,11.4
13,COc1ccccc1NS(=O)(=O)c1cc(NC(=O)c2sccc2C)ccc1N1CCOCC1,9.43
14,O=C(CN1CCN(c2cccc(Cl)c2)CC1)NCc1ccccc1,6.36
15,CCCC(NC(=O)COc1cc2c(c3oc(=O)c(C)c(C)c13)CCC(C)(C)O2)C(=O)O (stereo not shown),9.25
16,CNCC(O)c1cccc(OC(=O)c2ccccc2C)c1.Cl (stereo not shown),4.78
17,CC(OC(=O)C1CCN(S(=O)(=O)c2ccc3c(c2)OCCO3)CC1)C(=O)N(C)c1ccccc1 (stereo not shown),-6.83
18,O=C(Nc1ccc(NC(=O)c2ccco2)c(Cl)c1)c1cccc([N+](=O)[O-])c1,11.8
19,O=c1[nH]c2ccccc2n1CCCSc1cnc2ccccc2n1,10.8
20,Cn1c(Sc2nc3ccccc3n2C)nc2ccccc21,3.65
21,Cc1nn(Cc2c(Cl)cccc2Cl)c(C)c1NC(=O)/C=C/c1cnn(C)c1C,11.5
22,CCCNC(=O)c1nn2cc(Br)cnc2c1Cl,-27.6
23,CSc1nc(C)cc(Oc2ccc(=O)n(C)n2)n1,3.98
24,C/C(=N\NC(=O)c1sccc1C)c1cccnc1,16.4
25,COc1ccc(C(=O)C2CCN(C(=O)c3ccc(OC)cc3)CC2)cc1,-76
